The labels stand for the following.
B1: PhoQ; a variant is named by its letters at X, in order, P23837 (parent)
chain: MKKLLRLFFPLSLRVRFLLATAAVVLVLSLAYGMVALIGYSVSFDKTTFRLLRGESNLFYTLAKWENNKLHVELPENIDKQSPTMTLIYDENGQLLWAQRDVPWLMKMIQPDWLKSNGFHEIEADVNDTSLLLSGDHSIQQQLQEVREDDDDAEMTHSVAVNVYPATSRMPKLTIVVVDTIPVELKSSYMVWSWFIYVLSANLLLVIPLLWVAAWWSLRPIEALAKEVRELEEHNRELLNPATTRELTSLVRNLNRLLKSERERYDKYRTTLTDLTHSLKTPLXXLQXXLRSLRSEKMSVSDAEPVMLEQISRISQQIGYYLHRASMRGGTLLSRELHPVAPLLDNLTSALNKVYQRKGVNISLDISPEISFVGEQNDFVEVMGNVLDNACKYCLEFVEISARQTDEHLYIVVEDDGPGIPLSKREVIFDRGQRVDTLRPGQGVGLAVAREITEQYEGKIVAGESMLGGARMEVIFGRQHSAPKDE

The list shows a part of the results. A value given as a limit tells only on which side of the number the result lay.

The experiment covers variants of B1. Description: enrichment ratio after two sorts for PhoP signalling (ratio (wild type AVST 3.29)); higher = more functional. Conditions: with PhoP (E. coli).
Turning to DMTN, the enrichment ratio is at most 0.25.
As for TIME, the figure is at most 0.25.
As for HQHC, the figure is at most 0.25; as for YNWM, at most 0.25; as for SHKS, at most 0.25.
With IFMP, the enrichment ratio was at most 0.25.
The result for YPDN reads at most 0.25; that for WAKF, at most 0.25.
As for SCWL, the figure is at most 0.25; as for PRIF, at most 0.25; as for AETG, 8.19.
For the variant TGVV, the enrichment ratio worked out at 0.277.
As for QNCP, the figure is at most 0.25.
The result for VQHT reads at most 0.25.
The result for MCLC reads 1.65; that for SMFK, at most 0.25.
Turning to VDIY, the enrichment ratio is at most 0.25.
As for IIHR, the figure is at most 0.25; as for TCKP, at most 0.25; as for EYCL, at most 0.25.
The result for HKVH reads at most 0.25; that for YGSI, at most 0.25.
In the case of WMPR, the enrichment ratio is at most 0.25.
As for MNWD, the figure is 1.62.
As for YMRD, the figure is 0.298; as for YDMH, at most 0.25; as for MWSP, at most 0.25.
As for YTGD, the figure is at most 0.25.
Consider YKLL, for which the enrichment ratio is at most 0.25.
The result for VMAL reads at most 0.25; that for ALFV, at most 0.25.
As for DAHQ, the figure is at most 0.25; as for FTDC, at most 0.25.
The result for ENDI reads at most 0.25; that for IHRW, at most 0.25.
For RTIM, the enrichment ratio is at most 0.25.
The result for WNWI reads at most 0.25; that for HEAV, at most 0.25.
On to KVAR, for which the enrichment ratio was at most 0.25.
Consider FDMF, for which the enrichment ratio was at most 0.25.
With HWSE, the enrichment ratio was determined as 1.11.
The result for TTDG reads at most 0.25; that for GDRS, at most 0.25.
As for DNPQ, the figure is at most 0.25; as for PKTF, at most 0.25; as for PLDH, at most 0.25.
As for NHFY, the figure is at most 0.25.
Regarding FYWS, the enrichment ratio is at most 0.25.
As to QPPI, the enrichment ratio is at most 0.25.
The result for RVSE reads at most 0.25; that for GQGW, at most 0.25; that for YWPT, at most 0.25.
As for GATN, the figure is at most 0.25; as for TNFQ, at most 0.25.
As for IQRF, the figure is at most 0.25.
Regarding MVSR, the enrichment ratio was at most 0.25.
The result for TSWQ reads 6.69; that for FPYH, at most 0.25.
Consider AAQW, for which the enrichment ratio was at most 0.25.
As for SISF, the figure is 10.7; as for VATW, at most 0.25; as for YGSY, at most 0.25.
The result for AECS reads 39.5; that for HHCG, at most 0.25.
The result for LRSS reads at most 0.25; that for KAIA, at most 0.25; that for TAPS, at most 0.25.
For the variant WPHS, the enrichment ratio is at most 0.25.
The result for EMYR reads at most 0.25; that for PGEW, at most 0.25.
As for WYMF, the figure is at most 0.25.
In the case of SFHH, the enrichment ratio is at most 0.25.
In the case of PQIG, the enrichment ratio is at most 0.25.
With QQAL, the enrichment ratio is at most 0.25.
The result for WDMP reads at most 0.25; that for KVSL, at most 0.25; that for PLTH, at most 0.25.
The result for EGVH reads at most 0.25; that for NKYM, at most 0.25.
The result for VGAD reads at most 0.25; that for AKVE, at most 0.25; that for NRIG, at most 0.25.
As for AAWL, the enrichment ratio is at most 0.25.
The result for EFAL reads at most 0.25; that for MTKS, at most 0.25.
The result for YCHV reads at most 0.25; that for AFHE, at most 0.25.
The result for FQEG reads at most 0.25; that for DYVD, at most 0.25.
For GFTG, the enrichment ratio was at most 0.25.
As for NGTV, the figure is at most 0.25; as for ASRI, at most 0.25.
The result for DKYT reads at most 0.25; that for EEHL, at most 0.25.
The result for KDAY reads at most 0.25; that for LWSD, at most 0.25; that for GYSN, 0.824.
Regarding LWCV, the enrichment ratio was at most 0.25.
As for MTPA, the figure is at most 0.25; as for LYYE, at most 0.25.
As for ACSW, the figure is 8.92; as for WGLH, at most 0.25; as for INSG, at most 0.25.
As for VFYI, the figure is at most 0.25; as for YQWQ, at most 0.25.
QWVS: the enrichment ratio is at most 0.25.
As for ARCR, the figure is at most 0.25; as for WNHR, at most 0.25; as for LNLW, at most 0.25.
As for IQVD, the figure is at most 0.25; as for YCTA, 0.338.
Consider KKGR, for which the enrichment ratio was at most 0.25.
On to IGNH, for which the enrichment ratio was at most 0.25.
With NLMH, the enrichment ratio is at most 0.25.
In the case of KKVW, the enrichment ratio was at most 0.25.
As for IVWS, the figure is at most 0.25; as for NMRM, at most 0.25; as for KVCH, at most 0.25.
As for HEPK, the figure is at most 0.25; as for SPEM, at most 0.25; as for DIRK, at most 0.25.
As for SPVS, the figure is at most 0.25; as for HCQR, at most 0.25; as for QNNQ, at most 0.25.
IKCS: the enrichment ratio was at most 0.25.
As for LFRT, the figure is at most 0.25; as for HLWV, at most 0.25.
The result for DGKR reads at most 0.25; that for EIRV, at most 0.25; that for DAPP, at most 0.25.
Turning to AGSI, the enrichment ratio was 7.64.
The result for YPWV reads at most 0.25; that for HQKY, at most 0.25.
As for HENT, the figure is at most 0.25.
As to RGEH, the enrichment ratio was at most 0.25.
As for WNAP, the figure is at most 0.25; as for NHTT, at most 0.25; as for KACD, at most 0.25.
As for KDFF, the figure is at most 0.25.
As for DSAF, the figure is at most 0.25; as for NFMY, at most 0.25; as for RWNP, at most 0.25.
As for DTKP, the enrichment ratio was at most 0.25.
The result for TVNT reads 8.93; that for ESKF, at most 0.25.
On to DGKS, for which the enrichment ratio is at most 0.25.
In the case of QCRK, the enrichment ratio is at most 0.25.
As for ERFK, the figure is at most 0.25; as for NKLV, at most 0.25.
As for YIMR, the figure is at most 0.25; as for TDFV, at most 0.25.
As for HVLC, the figure is at most 0.25.
Take WAYI: the enrichment ratio is at most 0.25.

The values are drawn from a collection of fitness landscapes (doi:10.1126/science.1257360).
